The list shows a part of the results.
What was measured:
Test in all cases: glycan array binding signal (z-score within array); higher = stronger binding
Settings in all cases: glycan notation: IUPAC condensed, linker removed
[1] = target: GlcNAc(b1-2)Man(a1-3)[GlcNAc(b1-2)Man(a1-6)]Man(b1-4)GlcNAc(b1-4)GlcNAc
Method in brief: (§1)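 Columns mapping to the same glycan were averaged after glycan names were converted to IUPAC-condensed notation. The data come from 3228 arrays in the Consortium for Functional Glycomics database, limited to those with an available protein sequence. Binding is reported as a within-array Z-score averaged across arrays of one protein sequence and across linkers.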

GlcNAc(b1-3)Gal = target: GlcNAc(b1-3)Gal
Method in brief: as §1

[2] = target: GlcNAc(b1-3)Gal(b1-3)GalNAc
Method in brief: as §1

GlcNAc(b1-3)Gal(b1-4)Glc = target: GlcNAc(b1-3)Gal(b1-4)Glc
Method in brief: as §1

[3] = target: GlcNAc(b1-3)Gal(b1-4)GlcNAc
Method in brief: as §1

[4] = target: GlcNAc(b1-3)Gal(b1-4)GlcNAc(b1-3)Gal(b1-4)GlcNAc
Method in brief: as §1

GlcNAc(b1-3)GalNAc = target: GlcNAc(b1-3)GalNAc
Method in brief: as §1

[5] = target: GlcNAc(b1-3)[GlcNAc(b1-4)][GlcNAc(b1-6)]GlcNAc
Method in brief: as §1

[6] = target: GlcNAc(b1-3)[GlcNAc(b1-6)]Gal(b1-4)GlcNAc
Method in brief: as §1

[7] = target: GlcNAc(b1-3)[GlcNAc(b1-6)]GlcNAc
Method in brief: as §1

[8] = target: GlcNAc(b1-4)Gal(b1-4)GlcNAc
Method in brief: as §1

[9] = target: GlcNAc(b1-4)GlcNAc(b1-4)GlcNAc
Method in brief: as §1

[10] = target: GlcNAc(b1-4)GlcNAc(b1-4)GlcNAc(b1-4)GlcNAc(b1-4)GlcNAc
Method in brief: as §1

[11] = target: GlcNAc(b1-4)GlcNAc(b1-4)GlcNAc(b1-4)GlcNAc(b1-4)GlcNAc(b1-4)GlcNAc
Method in brief: as §1

[12] = target: GlcNAc(b1-4)[GlcNAc(b1-6)]GalNAc
Method in brief: as §1

[13] = target: GlcNAc(b1-6)Gal(b1-4)GlcNAc
Method in brief: as §1

GlcNAc(b1-6)GalNAc = target: GlcNAc(b1-6)GalNAc
Method in brief: as §1

Kdn(a2-3)Gal(b1-3)GlcNAc = target: Kdn(a2-3)Gal(b1-3)GlcNAc
Method in brief: as §1

Kdn(a2-3)Gal(b1-4)GlcNAc = target: Kdn(a2-3)Gal(b1-4)GlcNAc
Method in brief: as §1

[14] = target: Man(a1-2)Man(a1-2)Man(a1-3)Man
Method in brief: as §1

[15] = target: Man(a1-2)Man(a1-2)Man(a1-3)[Man(a1-2)Man(a1-3)[Man(a1-2)Man(a1-6)]Man(a1-6)]Man(b1-4)GlcNAc(b1-4)GlcNAc
Method in brief: as §1

[16] = target: Man(a1-2)Man(a1-2)Man(a1-3)[Man(a1-2)Man(a1-6)[Man(a1-3)]Man(a1-6)]Man(b1-4)GlcNAc(b1-4)GlcNAc
Method in brief: as §1

[17] = target: Man(a1-2)Man(a1-2)Man(a1-6)[Man(a1-3)]Man
Method in brief: as §1

Man(a1-2)Man(a1-3)Man = target: Man(a1-2)Man(a1-3)Man
Method in brief: as §1

[18] = target: Man(a1-2)Man(a1-3)[Man(a1-2)Man(a1-6)]Man
Method in brief: as §1

[19] = target: Man(a1-2)Man(a1-3)[Man(a1-3)[Man(a1-6)]Man(a1-6)]Man(b1-4)GlcNAc(b1-4)GlcNAc
Method in brief: as §1

[20] = target: Man(a1-2)Man(a1-3)[Man(a1-6)]Man(a1-6)[Man(a1-2)Man(a1-3)]Man(b1-4)GlcNAc(b1-4)GlcNAc
Method in brief: as §1

Man(a1-3)[Man(a1-6)]Man = target: Man(a1-3)[Man(a1-6)]Man
Method in brief: as §1

[21] = target: Man(a1-3)[Man(a1-6)]Man(a1-6)[Man(a1-3)]Man(b1-4)GlcNAc(b1-4)GlcNAc
Method in brief: as §1

[22] = target: Man(a1-3)[Man(a1-6)]Man(b1-4)GlcNAc(b1-4)GlcNAc
Method in brief: as §1

Man(b1-4)GlcNAc = target: Man(b1-4)GlcNAc
Method in brief: as §1

Neu5Ac(a2-3)Gal = target: Neu5Ac(a2-3)Gal
Method in brief: as §1

[23] = target: Neu5Ac(a2-3)Gal(b1-3)GalNAc
Method in brief: as §1

[24] = target: Neu5Ac(a2-3)Gal(b1-3)GalNAc(b1-3)Gal(a1-4)Gal(b1-4)Glc
Method in brief: as §1

[25] = target: Neu5Ac(a2-3)Gal(b1-3)GalNAc(b1-4)[Neu5Ac(a2-3)]Gal(b1-4)Glc
Method in brief: as §1

[26] = target: Neu5Ac(a2-3)Gal(b1-3)GalNAc6S
Method in brief: as §1

[27] = target: Neu5Ac(a2-3)Gal(b1-3)GlcNAc
Method in brief: as §1

[28] = target: Neu5Ac(a2-3)Gal(b1-3)GlcNAc(b1-3)Gal(b1-3)GlcNAc
Method in brief: as §1

[29] = target: Neu5Ac(a2-3)Gal(b1-3)GlcNAc(b1-3)Gal(b1-4)GlcNAc
Method in brief: as §1

[30] = target: Neu5Ac(a2-3)Gal(b1-3)GlcNAc6S
Method in brief: as §1

[31] = target: Neu5Ac(a2-3)Gal(b1-3)[Fuc(a1-4)]GlcNAc
Method in brief: as §1

[32] = target: Neu5Ac(a2-3)Gal(b1-3)[Fuc(a1-4)]GlcNAc(b1-3)Gal(b1-4)[Fuc(a1-3)]GlcNAc
Method in brief: as §1

[33] = target: Neu5Ac(a2-3)Gal(b1-3)[Neu5Ac(a2-3)Gal(b1-4)]GlcNAc
Method in brief: as §1

B1: Annexin-A1 (Mus musculus), P10107 (protein)
chain: MAMVSEFLKQARFLENQEQEYVQAVKSYKGGPGSAVSPYPSFNVSSDVAALHKAIMVKGVDEATIIDILTKRTNAQRQQIKAAYLQENGKPLDEVLRKALTGHLEEVVLAMLKTPAQFDADELRGAMKGLGTDEDTLIEILTTRSNEQIREINRVYREELKRDLAKDITSDTSGDFRKALLALAKGDRCQDLSVNQDLADTDARALYEAGERRKGTDVNVFTTILTSRSFPHLRRVFQNYGKYSQHDMNKALDLELKGDIEKCLTTIVKCATSTPAFFAEKLYEAMKGAGTRHKALIRIMVSRSEIDMNEIKVFYQKKYGISLCQAILDETKGDYEKILVALCGGN
What does the source list for B1?
glycan array binding signal (z-score) [1]: 0.064; glycan array binding signal (z-score) (GlcNAc(b1-3)Gal): -0.137; glycan array binding signal (z-score) [2]: -0.049; glycan array binding signal (z-score) (GlcNAc(b1-3)Gal(b1-4)Glc): -0.278; glycan array binding signal (z-score) [3]: 0.378; glycan array binding signal (z-score) [4]: -0.532; glycan array binding signal (z-score) (GlcNAc(b1-3)GalNAc): -0.231; glycan array binding signal (z-score) [5]: -0.436; glycan array binding signal (z-score) [6]: -0.758; glycan array binding signal (z-score) [7]: -0.452; glycan array binding signal (z-score) [8]: -0.318; glycan array binding signal (z-score) [9]: -0.237; glycan array binding signal (z-score) [10]: -0.446; glycan array binding signal (z-score) [11]: -0.547; glycan array binding signal (z-score) [12]: -0.564; glycan array binding signal (z-score) [13]: 0.067; glycan array binding signal (z-score) (GlcNAc(b1-6)GalNAc): -0.628; glycan array binding signal (z-score) (Kdn(a2-3)Gal(b1-3)GlcNAc): -0.771; glycan array binding signal (z-score) (Kdn(a2-3)Gal(b1-4)GlcNAc): -0.687; glycan array binding signal (z-score) [14]: 0.192; glycan array binding signal (z-score) [15]: -0.211; glycan array binding signal (z-score) [16]: -0.282; glycan array binding signal (z-score) [17]: -0.514; glycan array binding signal (z-score) (Man(a1-2)Man(a1-3)Man): 0.743; glycan array binding signal (z-score) [18]: -0.136; glycan array binding signal (z-score) [19]: 0.179; glycan array binding signal (z-score) [20]: -0.41; glycan array binding signal (z-score) (Man(a1-3)[Man(a1-6)]Man): -0.165; glycan array binding signal (z-score) [21]: -0.176; glycan array binding signal (z-score) [22]: -0.566; glycan array binding signal (z-score) (Man(b1-4)GlcNAc): -0.616; glycan array binding signal (z-score) (Neu5Ac(a2-3)Gal): 0.45; glycan array binding signal (z-score) [23]: -0.573; glycan array binding signal (z-score) [24]: -0.275; glycan array binding signal (z-score) [25]: -0.443; glycan array binding signal (z-score) [26]: 0.599; glycan array binding signal (z-score) [27]: -0.109; glycan array binding signal (z-score) [28]: -0.048; glycan array binding signal (z-score) [29]: -0.609; glycan array binding signal (z-score) [30]: 0.594; glycan array binding signal (z-score) [31]: -0.681; glycan array binding signal (z-score) [32]: 0.009; glycan array binding signal (z-score) [33]: -0.501

Source: the supplement of paper PMC8728848
